Source: the RNAGym collection of RNA variant scans (doi:10.1101/gad.245936.114)
Variants at the floor of the assay are shown more often than the library holds them.

B1: tRNA (parent)
chain: CUCUCGGUAGCCAAGUUGGUUUAAGGCGCAAGACUUUAAUUUAUCACUACGAAAUCUUGAGAUCGGGCGUUCGACUCGCCCCCGGGAGAUUUUUUCCUCGAGCAA

Variants of: B1
Experiment: nonsense suppression (GFP-seq) (ratio to wild type); higher = more function; SUP4oc tRNA, yeast GFP reporter sort-seq
Method in brief: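 To measure nonsense suppression, tRNA variants from a library carrying ~3% random mutations were integrated into the yeast genome alongside RFP and a GFP ochre reporter under galactose control. Growth took place in raffinose/galactose medium supplemented with 80 mg/L adenine, followed by sorting into GFP/RFP bins and Illumina sequencing of each bin (phred ≥30). For each variant with ≥100 reads and ≥30 cells, the bin median GFP/RFP values were weighted by its estimated cell share per bin and referenced to the unmutated parent tRNA.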

Row | Variant | nonsense suppression
1 | U8G U16A C75G | ≤ 0.026
2 | U8G U16A C75U | ≤ 0.026
3 | U8G U16C U17G G69A G85U | ≤ 0.026
4 | U8G U16C U35A G59U | ≤ 0.026
5 | U8G U16G G59C C75U | ≤ 0.026
6 | U8G U20G C82U | ≤ 0.026
7 | U8G U20G G61A C68U C75A U76C G88U | ≤ 0.026
8 | U8G U21A C29G C79G | ≤ 0.026
9 | U8G U21G A30G C72A G78U | ≤ 0.026
10 | U8G U21G C34G | ≤ 0.026
11 | U8G U21G G85A | ≤ 0.026
12 | U8G U22C A23C G26U | ≤ 0.026
13 | U8G U22G G85U A89U | ≤ 0.026
14 | U8G U35A U57G | ≤ 0.026
15 | U8G U55A G86A | ≤ 0.026
16 | U8G U55A U71A | ≤ 0.026
17 | U8G U57A A62U | ≤ 0.026
18 | U8G U57C U76A G88U | ≤ 0.026
19 | U8G U58A G59A U76C | ≤ 0.026
20 | U8G U58A G61A C77A | ≤ 0.026
21 | U8G U58C A60U G66A G86A | ≤ 0.026

Row | Variant | nonsense suppression
22 | U8G U71G | ≤ 0.026
23 | A9C A13C | 1.15
24 | A9C A13C A87C | ≤ 0.026
25 | A9C A13U G18C | ≤ 0.026
26 | A9C A14C A23U U35G A54G | ≤ 0.026
27 | A9C A14C A74U | ≤ 0.026
28 | A9C A14C U58G | ≤ 0.026
29 | A9C A14G G19U G88A | ≤ 0.026
30 | A9C A14G U55A G61A | ≤ 0.026
31 | A9C A14U C29G A30C G32A A33G C34A U35C U76C | ≤ 0.026
32 | A9C A23G | 0.0661
33 | A9C A23G G32A G85A | ≤ 0.026
34 | A9C A23U U57G G86U | ≤ 0.026
35 | A9C A24G | ≤ 0.026
36 | A9C A30C G61U | ≤ 0.026
37 | A9C A30G G69C | ≤ 0.026
38 | A9C A30G U57A G84A | ≤ 0.026
39 | A9C A30G U58C U63G | ≤ 0.026
40 | A9C A31G C68G G86A | ≤ 0.026
41 | A9C A31G G84U A89C | ≤ 0.026
42 | A9C A31U C77G | ≤ 0.026

Row | Variant | nonsense suppression
43 | A9C A33G C34A U63G | ≤ 0.026
44 | A9C A33G G59C | ≤ 0.026
45 | A9C A33G G84C | ≤ 0.026
46 | A9C A33U | ≤ 0.026
47 | A9C A33U G61U | ≤ 0.026
48 | A9C A54G G78A G88U A89C | ≤ 0.026
49 | A9C A54U | 1.21
50 | A9C A54U G65U | ≤ 0.026
51 | A9C A60C | 0.0924
52 | A9C A60C C68A G69C | ≤ 0.026
53 | A9C A60C C80G | ≤ 0.026
54 | A9C A62C G69C G84C | ≤ 0.026
55 | A9C A74C U76C A87G | ≤ 0.026
56 | A9C C11A U16G A23G U63A G73A | ≤ 0.026
57 | A9C C11A U35C | ≤ 0.026
58 | A9C C11G A54C G67C C72A | ≤ 0.026
59 | A9C C11U A60G | ≤ 0.026
60 | A9C C11U C27U | ≤ 0.026
61 | A9C C11U C27U G86U | ≤ 0.026
62 | A9C C11U G61C C64A G73A | ≤ 0.026
63 | A9C C12A U22C C75A | ≤ 0.026

Row | Variant | nonsense suppression
64 | A9C C12A U58A A62G | ≤ 0.026
65 | A9C C12G U70C | ≤ 0.026
66 | A9C C12U A24U G84U | ≤ 0.026
67 | A9C C27A U58G | ≤ 0.026
68 | A9C C29G U76A | ≤ 0.026
69 | A9C C29U | 0.751
70 | A9C C34G U35A G66C | ≤ 0.026
71 | A9C C56U A62U | ≤ 0.026
72 | A9C C56U C75G G86C | ≤ 0.026
73 | A9C C68G U71G | ≤ 0.026
74 | A9C C68U G78C | 0.0334
75 | A9C G10C C11G A24G A31G A54C | ≤ 0.026
76 | A9C G15A | ≤ 0.026
77 | A9C G15A A33C U70A | ≤ 0.026
78 | A9C G15A C34U C83G | ≤ 0.026
79 | A9C G18A U76C | ≤ 0.026
80 | A9C G18U | ≤ 0.026
81 | A9C G18U A24G | ≤ 0.026
82 | A9C G18U U57C C68A C79A | ≤ 0.026
83 | A9C G19A A31U | ≤ 0.026
84 | A9C G19A G86A | ≤ 0.026
